Test results: the supplement of paper PMC8728848
The list shows a part of the results.

Experiments:
Experiment in all cases: glycan array binding signal (z-score within array); higher = stronger binding
Settings in all cases: glycan notation: IUPAC condensed, linker removed
[1] = biological target: GlcNAc(b1-3)Gal(b1-4)GlcNAc(b1-3)Gal(b1-4)GlcNAc(b1-3)Gal(b1-4)GlcNAc(b1-3)Gal(b1-4)GlcNAc(b1-2)[GlcNAc(b1-3)Gal(b1-4)GlcNAc(b1-3)Gal(b1-4)GlcNAc(b1-3)Gal(b1-4)GlcNAc(b1-3)Gal(b1-4)GlcNAc(b1-6)]Man(a1-6)[GlcNAc(b1-3)Gal(b1-4)GlcNAc(b1-3)Gal(b1-4)GlcNAc(b1-3)Gal(b1-4)GlcNAc(b1-3)Gal(b1-4)GlcNAc(b1-2)Man(a1-3)]Man(b1-4)GlcNAc(b1-4)[Fuc(a1-6)]GlcNAc
How it was run: (§1)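 The Consortium for Functional Glycomics database supplied 3228 glycan arrays, of which those lacking an available protein sequence were dropped. The binding signal, a within-array Z-score, was averaged across arrays of the same protein sequence and across linkers. Negative scores can be read as non-binding.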

[2] = biological target: GlcNAc(b1-3)Gal(b1-4)GlcNAc(b1-3)Gal(b1-4)GlcNAc(b1-3)GalNAc
How it was run: as §1

[3] = biological target: GlcNAc(b1-3)Gal(b1-4)GlcNAc(b1-3)GalNAc
How it was run: as §1

[4] = biological target: GlcNAc(b1-3)Gal(b1-4)GlcNAc(b1-3)[GlcNAc(b1-3)Gal(b1-4)GlcNAc(b1-3)]GalNAc
How it was run: as §1

[5] = biological target: GlcNAc(b1-3)Gal(b1-4)GlcNAc(b1-6)[Gal(b1-3)]GalNAc
How it was run: as §1

[6] = biological target: GlcNAc(b1-3)Gal(b1-4)GlcNAc(b1-6)[GlcNAc(b1-3)Gal(b1-3)]GalNAc
How it was run: as §1

[7] = biological target: GlcNAc(b1-3)Gal(b1-4)GlcNAc(b1-6)[GlcNAc(b1-3)]Gal(b1-4)GlcNAc
How it was run: as §1

[8] = biological target: GlcNAc(b1-3)GalNAc
How it was run: as §1

[9] = biological target: GlcNAc(b1-3)Man
How it was run: as §1

[10] = biological target: GlcNAc(b1-3)[GlcNAc(b1-4)][GlcNAc(b1-6)]GlcNAc
How it was run: as §1

[11] = biological target: GlcNAc(b1-3)[GlcNAc(b1-6)]Gal(b1-4)GlcNAc
How it was run: as §1

[12] = biological target: GlcNAc(b1-3)[GlcNAc(b1-6)]GalNAc
How it was run: as §1

[13] = biological target: GlcNAc(b1-4)Gal(b1-4)GlcNAc
How it was run: as §1

[14] = biological target: GlcNAc(b1-4)GlcNAc
How it was run: as §1

[15] = biological target: GlcNAc(b1-4)GlcNAc(b1-4)GlcNAc
How it was run: as §1

[16] = biological target: GlcNAc(b1-4)GlcNAc(b1-4)GlcNAc(b1-4)GlcNAc(b1-4)GlcNAc
How it was run: as §1

[17] = biological target: GlcNAc(b1-4)GlcNAc(b1-4)GlcNAc(b1-4)GlcNAc(b1-4)GlcNAc(b1-4)GlcNAc
How it was run: as §1

[18] = biological target: GlcNAc(b1-4)[GlcNAc(b1-6)]GalNAc
How it was run: as §1

[19] = biological target: GlcNAc(b1-6)Gal(b1-4)GlcNAc
How it was run: as §1

[20] = biological target: GlcNAc(b1-6)GalNAc
How it was run: as §1

[21] = biological target: GlcNAc6S(b1-3)Gal(b1-4)GlcNAc
How it was run: as §1

[22] = biological target: Kdn(a2-3)Gal(b1-3)GalNAc
How it was run: as §1

[23] = biological target: Kdn(a2-3)Gal(b1-3)GlcNAc
How it was run: as §1

[24] = biological target: Kdn(a2-3)Gal(b1-4)Glc
How it was run: as §1

[25] = biological target: Kdn(a2-3)Gal(b1-4)GlcNAc
How it was run: as §1

[26] = biological target: Kdn(a2-3)Gal(b1-4)[Fuc(a1-3)]GlcNAc
How it was run: as §1

[27] = biological target: Kdn(a2-6)Gal(b1-4)GlcNAc
How it was run: as §1

[28] = biological target: Man(a1-2)Man(a1-2)Man(a1-3)Man
How it was run: as §1

[29] = biological target: Man(a1-2)Man(a1-2)Man(a1-6)[Man(a1-3)]Man
How it was run: as §1

[30] = biological target: Man(a1-2)Man(a1-3)Man
How it was run: as §1

B1: Di AAL2 (Agrocybe aegerita) (protein)
chain: MTSNVITQDLPIPVASRGFADIVGFGLDGVVIGRNAVNLQPFLAVKNFAQNAGGWLTTKHVRLIADTTGTGKGDIVGFGNAGVYVSVNNGKNTFADPPKMVIANFGYDAGGWRVEKHLRYLADIRKIGRADIIGFGEKGVLVSRNNGGLNFGPATLVLKDFGYDAGGWRLDRHLRFLADVTGNGHLDIVGFGDKHVFISRNNGDGTFAPAKSVIDNFCIDAGGWKIGDHPRFVADLTGDGTADIIGCGKAGCWVALNNGGGVFGQVKLVINDFGTDKGWQAAKHPRFIADLTGNGRGDVVGFGNAGVYVALNNGDGTFQSAKLVLKDFGVQQGWTVSKHRRFVVDLTGDGCADIIGFGEKETLVSYNDGKGNFGPVKALTNDFSFSGGKWAPETTVCWMANLDSSRHPAPAPMTSNVITQDLPIPVASRGFADIVGFGLDGVVIGRNAVNLQPFLAVKNFAQNAGGWLTTKHVRLIADTTGTGKGDIVGFGNAGVYVSVNNGKNTFADPPKMVIANFGYDAGGWRVEKHLRYLADIRKIGRADIIGFGEKGVLVSRNNGGLNFGPATLVLKDFGYDAGGWRLDRHLRFLADVTGNGHLDIVGFGDKHVFISRNNGDGTFAPAKSVIDNFCIDAGGWKIGDHPRFVADLTGDGTADIIGCGKAGCWVALNNGGGVFGQVKLVINDFGTDKGWQAAKHPRFIADLTGNGRGDVVGFGNAGVYVALNNGDGTFQSAKLVLKDFGVQQGWTVSKHRRFVVDLTGDGCADIIGFGEKETLVSYNDGKGNFGPVKALTNDFSFSGGKWAPETTVCWMANLDSSRH
glycan array binding signal (z-score) [1]: 5.69
glycan array binding signal (z-score) [2]: 2.83
glycan array binding signal (z-score) [3]: 2.06
glycan array binding signal (z-score) [4]: 1.68
glycan array binding signal (z-score) [5]: 1.46
glycan array binding signal (z-score) [6]: 0.959
glycan array binding signal (z-score) [7]: 2.56
glycan array binding signal (z-score) [8]: 1.48
glycan array binding signal (z-score) [9]: -0.31
glycan array binding signal (z-score) [10]: 0.036
glycan array binding signal (z-score) [11]: 2
glycan array binding signal (z-score) [12]: 1.22
glycan array binding signal (z-score) [13]: -0.305
glycan array binding signal (z-score) [14]: 0.57
glycan array binding signal (z-score) [15]: 0.699
glycan array binding signal (z-score) [16]: 0.501
glycan array binding signal (z-score) [17]: 0.311
glycan array binding signal (z-score) [18]: 0.392
glycan array binding signal (z-score) [19]: -0.325
glycan array binding signal (z-score) [20]: 0.76
glycan array binding signal (z-score) [21]: -0.325
glycan array binding signal (z-score) [22]: -0.327
glycan array binding signal (z-score) [23]: -0.34
glycan array binding signal (z-score) [24]: -0.326
glycan array binding signal (z-score) [25]: -0.335
glycan array binding signal (z-score) [26]: -0.331
glycan array binding signal (z-score) [27]: -0.335
glycan array binding signal (z-score) [28]: -0.342
glycan array binding signal (z-score) [29]: -0.334
glycan array binding signal (z-score) [30]: -0.342
